# Assay results as given in article PMC4336329 (PLoS ONE, 2015).
# Screen size: about 310,000 compounds; about 14,000 (4.5%) showed an effect of 50% or more. The effect is printed as a negative number. The list shows a part of the results.
# Target: human ether-à-go-go-related gene (hERG) potassium channel (human, UniProt Q12809)
# Assay: primary screen, population patch clamp on CHO cells stably expressing hERG
# 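Note: peak tail current of the secondary pulse compared with the same well before compound.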
# Chain of human ether-à-go-go-related gene (hERG) potassium channel (Q12809 whole entry, looked up): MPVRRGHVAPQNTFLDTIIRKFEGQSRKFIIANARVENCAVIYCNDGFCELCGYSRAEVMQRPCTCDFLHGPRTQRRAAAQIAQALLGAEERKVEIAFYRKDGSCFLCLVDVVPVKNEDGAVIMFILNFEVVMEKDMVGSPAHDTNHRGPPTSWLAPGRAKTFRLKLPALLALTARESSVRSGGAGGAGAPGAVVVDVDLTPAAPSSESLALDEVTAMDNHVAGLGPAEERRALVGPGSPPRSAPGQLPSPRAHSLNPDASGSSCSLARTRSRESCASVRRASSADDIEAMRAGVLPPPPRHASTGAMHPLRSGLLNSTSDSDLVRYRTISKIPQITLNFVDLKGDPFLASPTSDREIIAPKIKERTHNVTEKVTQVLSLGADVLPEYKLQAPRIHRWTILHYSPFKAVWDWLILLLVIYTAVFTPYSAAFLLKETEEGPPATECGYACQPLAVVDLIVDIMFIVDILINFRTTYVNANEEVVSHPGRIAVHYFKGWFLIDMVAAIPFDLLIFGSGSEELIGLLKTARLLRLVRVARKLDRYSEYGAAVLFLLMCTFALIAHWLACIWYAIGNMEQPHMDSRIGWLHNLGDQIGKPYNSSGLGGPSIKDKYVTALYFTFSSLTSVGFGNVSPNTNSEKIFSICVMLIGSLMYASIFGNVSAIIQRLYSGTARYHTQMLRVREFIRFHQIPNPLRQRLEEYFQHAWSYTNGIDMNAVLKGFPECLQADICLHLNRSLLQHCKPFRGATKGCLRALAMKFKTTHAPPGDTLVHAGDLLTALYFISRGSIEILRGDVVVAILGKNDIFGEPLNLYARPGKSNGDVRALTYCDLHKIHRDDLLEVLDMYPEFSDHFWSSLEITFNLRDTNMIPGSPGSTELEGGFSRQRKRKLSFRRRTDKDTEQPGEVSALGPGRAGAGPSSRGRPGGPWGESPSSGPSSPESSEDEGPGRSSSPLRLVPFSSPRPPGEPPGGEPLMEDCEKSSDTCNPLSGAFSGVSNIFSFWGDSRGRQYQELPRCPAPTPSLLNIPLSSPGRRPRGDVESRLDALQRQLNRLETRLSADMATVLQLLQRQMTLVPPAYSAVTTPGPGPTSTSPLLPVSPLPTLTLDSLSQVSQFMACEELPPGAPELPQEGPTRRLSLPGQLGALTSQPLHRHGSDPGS
row,SMILES,"hERG current change (%, negative = inhibition) at 10uM"
1,COc1ccccc1C(=O)Nc1c(-c2ccccc2)nc2ccccn12,-13.3%
2,CCOC(=O)Cc1nnc(NC(=O)c2ncn[nH]2)s1,-9.4%
3,Nc1ccc(CCN2CCN(c3cccc(C(F)(F)F)c3)CC2)cc1,-67.2%
4,CCN(CC)S(=O)(=O)c1ccc(N2CCOCC2)c(NC(=O)c2ccc3c(c2)OCCO3)c1,-29.4%
5,COc1ccc(CN(C(=S)Nc2ccccc2)C2CC(=O)N(c3ccccc3)C2=O)cc1 (centres unmarked),4.07%
6,COC(=O)C1=C(c2ccc(OC)c(OC)c2)C[C@@H]2CC[C@H]1N2C(=O)NCc1ccco1,9.89%
7,Cc1ccccc1NC(=O)CC1SC(=Nc2ccc(O)cc2)NC1=O (centres unmarked),10.8%
8,O=C(O)CC/C(=C\c1ccc(Cl)c([N+](=O)[O-])c1)c1nc2ccccc2s1,5.17%
9,COC(=O)C1=C(c2c(C)noc2C)C[C@@H]2CC[C@H]1N2C(=O)N1CCCC1,13.5%
10,CC(C)CCN(CC(=O)NC1CCCC1)C(=O)C(=O)Nc1ccc2c(c1)OCCO2,11%
11,COc1ccccc1C1C2=C(N=C3SCC(=O)N31)c1ccccc1CC2 (centres unmarked),9.78%
12,CCS(=O)(=O)N1CCN(c2ccnc3cc(Cl)ccc23)CC1,-73.2%
13,O=C(CNS(=O)(=O)c1ccccc1)NCC(=O)OCc1ccc(Br)cc1,-6.92%
14,Cc1nn(CC#N)c(=O)n1-c1ccc(Cl)cc1,9.4%
15,CC(C)CCNC(=O)C1CCN(c2nc3ccccc3o2)CC1,-7.06%
16,COc1ccc(N(Cc2cc3ccc(C)cc3[nH]c2=O)S(=O)(=O)c2ccccc2)cc1,12%
17,C#CCNC(=O)C1=C[C@@H](c2ccccc2)C[C@@H](OCCCCO)O1,-13.4%
18,Cc1ccc(CN2CCN(Cc3ccc4cccc(F)c4n3)CC2CCO)cc1 (centres unmarked),-68.6%
19,CC(=O)Nc1cccc(Nc2nc(-c3ccccc3F)nc3ccccc23)c1,11.5%
20,CCCCOc1cccc(C(=O)Nc2ccc(S(=O)(=O)Nc3nnc(CC)s3)cc2)c1,-7.54%
21,CN(C)c1ccc(/C=N/NC(=O)c2ccc3c(c2)OCO3)cc1,6.07%
22,O=C(Nc1ccc(-c2nc3cccnc3s2)cc1)c1ccco1,13.1%

row,SMILES,"hERG current change (%, negative = inhibition) at 10uM"
1,O=C(CC1Sc2ccccc2NC1=O)Nc1ccccc1[N+](=O)[O-] (centres unmarked),-4.23%
2,COc1ccc(OC)c(Nc2cc(C)nc3nc(C)nn23)c1,0.139%
3,O=C(CCC(=O)N(CC(=O)NC1CCCCC1)c1ccc2c(c1)OCCO2)Nc1ccccn1,9.02%
4,CCCN(CCC)C(=O)CC(c1ccccc1)c1cc(C)ccc1O (centres unmarked),-20.3%
5,CC(C)c1ccc(NC(=O)CSc2nc(=O)n(CCCN3CCOCC3)c3c2CCC3)cc1,-51.3%
6,O=C(NNC(=S)NCc1ccc(Cl)cc1)c1ccc2c(c1)OCO2,6.73%
7,CCOC(=O)CSc1ccc2nnc(-c3ccncc3)n2n1,-31.4%
8,CCCS(=O)(=O)c1c(S(=O)(=O)CCC)c2cnccn2c1C(=O)c1ccc(Cl)cc1,-31.7%
9,O=C(O)c1ccccc1.OC(CNCC1CCCO1)Cn1c2ccccc2c2ccccc21 (centres unmarked),-27.4%
10,CCc1cccc(C)c1NC(=S)NCc1ccc2c(c1)cc(C)n2C,1.32%
11,CC(=O)N1C(=O)C2(C(C#N)=C(N)Oc3c2c(C)nn3-c2ccccc2)c2ccccc21 (centres unmarked),0.479%
12,Cc1cc(C)c(NC(=O)CCCN2CCCC2)c(C)c1,27.1%
13,COc1ccccc1CNS(=O)(=O)c1ccc2c(c1)CC(C)N2C(=O)C1CCC1 (centres unmarked),-10.1%
14,CC(C)(C)NC(=O)COC(=O)c1ccc(O)cc1,4.51%
15,CCOc1nc(Nc2ccc(OC)c(Cl)c2)nc(OCC)n1,-8.68%
16,COc1ccc(Nc2nc(N3CCN(C)CC3)nc3ccccc23)c(OC)c1,-75.4%
17,COc1ccc(C(=O)C(OC(=O)c2ccccc2Cl)c2ccccc2)cc1 (centres unmarked),-0.748%
18,COc1ccccc1/C=c1\sc2nc(-c3ccccc3OC)nn2c1=O,3.75%
19,O=C1OC2(CCCCC2)OC(=O)C1=CNc1nc2ccccc2s1,9.83%
20,CN(C)S(=O)(=O)c1ccc(C(=O)NCC(C)(C)N2CCOCC2)cc1,12.6%
21,COC(=O)c1ccc(CN2C(=O)C3CCCCC3C2=O)o1 (centres unmarked),5.81%
22,CSc1nnc2c(n1)OC(C)=Nc1ccccc1-2,-6.12%

row,SMILES,"hERG current change (%, negative = inhibition) at 10uM"
1,CC(C)(C)c1ccc(OCC(O)CN2CCCC2)cc1.Cl (centres unmarked),-35.7%
2,COCc1cc(C)nc(NC2CC(C)(C)NC(C)(C)C2)c1C#N,12.7%
3,CCOP(=O)(OCC)c1nc(-c2cccc([N+](=O)[O-])c2)oc1N1CCCCC1,-13.4%
4,Brc1cccc(-c2nnc3sc(CN4CCC5(CC4)OCCO5)cn23)c1,-15.3%
5,CC(=O)Nc1sc(-c2ccccc2)nc1-c1ccccc1,14%
6,Cc1ccc(-n2cccn2)c(CN2CCCC(C(=O)c3ccc4c(c3)OCO4)C2)c1 (centres unmarked),-77.2%
7,COC(=O)[C@@H](NC(=O)NC1CCN(Cc2ccccc2)CC1)C(C)C,15.2%
8,CCCCNC(=O)Nc1ccc(Br)cn1,-16.2%
9,Cl.O=S(=O)(NCCCN1CCOCC1)c1ccc(F)c(Cl)c1,-3.74%
10,O=C(CN(c1ccccc1)S(=O)(=O)c1ccccc1)N1CCN(Cc2ccc3c(c2)OCO3)CC1,-33.4%
11,COc1cccc(C(=O)Nc2ccc(S(=O)(=O)NCc3ccco3)cc2)c1,-28.4%
12,O=S1(=O)N=C2CCCCCN2C(c2ccc(Cl)cc2)N1 (centres unmarked),-3.14%
13,CN1CCN(C(=S)Nc2cc(S(=O)(=O)N3CCOCC3)ccc2Cl)CC1,7.53%
14,CC(C)n1c2ccccc2c2cc([N+](=O)[O-])ccc21,16.1%
15,CCOC(=O)c1ccc(NC(=O)c2ccc3c(c2)OCO3)cc1,9.64%
16,Cc1cc(C)c(S(=O)(=O)N2CCN(C(=O)c3c(C)noc3C)CC2)c(C)c1,-5.93%
17,CCN(CC)S(=O)(=O)c1ccc(Cl)c(NC(=O)CSc2cccc[n+]2[O-])c1,-13.4%
18,COC(=O)Cc1ccc(NC(=O)c2ccc(C(C)(C)C)cc2)cc1,-23.9%
19,COc1ccc(NC(=O)N2CCCC2C(=O)NCc2ccc(C)cc2)cc1 (centres unmarked),6.43%
20,O=C(Nc1nc2c(s1)CCCC2)c1ccc(N2C(=O)CCC2=O)cc1,3.59%
21,CC(C)C(=O)Nc1c(-c2ccccc2F)c(=O)c2ccccc2n1C,14.2%
22,Cc1ccc(NC(=O)c2ccc(NCc3ccc(F)cc3)nc2)cc1,14.9%

row,SMILES,"hERG current change (%, negative = inhibition) at 10uM"
1,O=C(NC1(C(F)(F)F)NC(=O)N(C2CCCCC2)C1=O)c1ccco1 (centres unmarked),3.36%
2,COc1ccc(Nc2ccc(Cl)cc2)c(C(=O)O)c1,-7.35%
3,COc1cccc(C2C(C(=O)c3cc4ccccc4o3)=C(O)C(=O)N2c2cc(C)on2)c1OC (centres unmarked),18.5%
4,O=c1c2cc(Cl)ccc2[nH]c(=S)n1Cc1ccco1,-6.86%
5,COc1cc(NS(=O)(=O)c2ccc(F)cc2)c(C(=O)O)cc1OC,15.8%
6,O=c1[nH]c(=O)n(Cc2ccco2)c2c1C(C(F)(F)F)(C(F)(F)F)N=C(c1ccco1)N2,7.54%
7,CC(C)[C@H](NC(=O)OC(C)(C)C)c1nnc(SCC(=O)Nc2ccc(Br)cc2)o1,-33%
8,Clc1cccc(-c2nc(NCc3cccnc3)c3ccccc3n2)c1,0.604%
9,Cc1ccc2nc(Cn3cc(C(F)(F)F)cc(Cl)c3=O)cc(=O)n2c1,-24.5%
10,COC(=O)c1ccccc1NC(=O)CCNC(=O)Cn1cnc2ccccc2c1=O,2.64%
11,O=C1/C(=C\c2c(NCCOCCO)nc3ccccn3c2=O)SC(=S)N1Cc1ccco1,-0.759%
12,CCC1=C/C(=C/c2sc3ccccc3[n+]2CC)CC(C)(C)C1.[I-],11.5%
13,COC(=O)C1=C(C)N(CCCC(=O)O)C(=O)NC1c1ccc(-c2ccccc2)cc1 (centres unmarked),0.876%
14,O=C(O)[C@H](Cc1ccccc1)Nc1ccc([N+](=O)[O-])cn1,14.4%
15,C/C(Cl)=C\CNC(C)c1ccccc1.Cl (centres unmarked),5.76%
16,O=C(NC(=S)Nc1cc(C(F)(F)F)ccc1N1CCOCC1)c1ccco1,3.6%
17,CCCn1c(=O)c(C(=O)OCC)c(O)c2cc(Br)ccc21,19.8%
18,O=C(/C=C/c1ccccc1)CC(O)(c1ccccc1)C(F)(F)F (centres unmarked),-13.7%
19,Cc1cccc(OCC(=O)N(Cc2cccs2)C2CCS(=O)(=O)C2)c1C (centres unmarked),-27.1%
20,COc1ccc(/C=C/C(=O)OCC(=O)NC2CCCC2)cc1,-2.45%
